Measurements published in publication PMC4336329 (PLoS ONE, 2015).
The campaign covered roughly 310,000 compounds. About 2,200 (0.71%) showed an effect of 50% or more. The effect is printed as a negative number. Some of the results follow.

Biological target: human ether-à-go-go-related gene (hERG) potassium channel (human, UniProt Q12809)
Experiment: primary screen, population patch clamp on CHO cells stably expressing hERG

Sequence of human ether-à-go-go-related gene (hERG) potassium channel (Q12809 whole entry, looked up): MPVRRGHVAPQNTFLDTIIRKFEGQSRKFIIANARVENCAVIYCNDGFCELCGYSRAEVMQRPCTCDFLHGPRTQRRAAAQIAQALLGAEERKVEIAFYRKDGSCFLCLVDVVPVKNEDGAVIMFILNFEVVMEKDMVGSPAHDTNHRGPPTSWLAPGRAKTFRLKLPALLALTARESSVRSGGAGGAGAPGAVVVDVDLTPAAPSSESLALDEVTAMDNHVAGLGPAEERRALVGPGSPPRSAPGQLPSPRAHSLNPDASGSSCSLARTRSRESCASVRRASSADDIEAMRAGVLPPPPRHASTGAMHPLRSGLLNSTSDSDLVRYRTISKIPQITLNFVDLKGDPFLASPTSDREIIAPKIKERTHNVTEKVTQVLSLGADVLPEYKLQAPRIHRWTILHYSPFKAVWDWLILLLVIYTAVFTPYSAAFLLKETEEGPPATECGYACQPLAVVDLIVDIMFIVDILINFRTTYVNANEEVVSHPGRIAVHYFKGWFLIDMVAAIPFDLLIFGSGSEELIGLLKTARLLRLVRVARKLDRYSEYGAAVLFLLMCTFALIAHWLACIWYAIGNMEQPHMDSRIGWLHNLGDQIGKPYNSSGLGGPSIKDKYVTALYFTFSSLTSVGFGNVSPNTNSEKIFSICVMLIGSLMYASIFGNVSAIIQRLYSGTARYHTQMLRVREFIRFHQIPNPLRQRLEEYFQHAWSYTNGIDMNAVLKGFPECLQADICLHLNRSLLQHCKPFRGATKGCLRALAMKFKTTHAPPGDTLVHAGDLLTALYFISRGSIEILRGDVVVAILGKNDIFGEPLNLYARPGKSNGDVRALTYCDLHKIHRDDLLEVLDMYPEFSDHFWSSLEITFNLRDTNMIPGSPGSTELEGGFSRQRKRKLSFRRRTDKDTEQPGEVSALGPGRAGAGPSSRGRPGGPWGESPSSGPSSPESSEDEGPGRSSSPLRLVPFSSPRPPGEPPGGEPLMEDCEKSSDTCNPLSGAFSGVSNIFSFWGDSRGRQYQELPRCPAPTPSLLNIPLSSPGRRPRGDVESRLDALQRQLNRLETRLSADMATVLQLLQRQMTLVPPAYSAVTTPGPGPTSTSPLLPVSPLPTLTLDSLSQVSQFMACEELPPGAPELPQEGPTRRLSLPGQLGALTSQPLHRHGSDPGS

| Structure (SMILES) | hERG current change (%, negative = inhibition) at 1uM |
| --- | --- |
| CCOc1ccccc1-c1nc(CN2CCC(C(=O)N3CCOCC3)CC2)c(C)o1 | 5.93% |
| O=C(CSc1ccccc1C(=O)O)Nc1cccc(C(=O)O)c1 | 9.03% |
| O=C1C=C(N(CCO)CCO)C2(CCCCC2)O1 | 3.83% |
| O=C(CCNS(=O)(=O)c1ccccc1)N1CCN(c2ccccc2F)CC1 | -12% |
| Cc1ccc(C)c(NC(=S)NCCc2ccc(S(N)(=O)=O)cc2)c1 | 3.82% |
| O=C(O)CC/C(=N\Nc1ccc(S(=O)(=O)N2CCOCC2)cc1[N+](=O)[O-])c1cccs1 | 10.1% |
| OC1CCCN(Cc2cn(Cc3ccccc3)nc2-c2cc3ccccc3o2)C1 (stereo not drawn) | -7.53% |
| CC(C)(C)NC(=O)CCN(/N=C/c1ccccc1)C1=NS(=O)(=O)c2ccccc21 | 7.27% |
| CC(NC(=O)c1ccc(CS(=O)(=O)c2ccc(Cl)cc2)o1)c1ccc2c(c1)OCCO2 (stereo not drawn) | 2.86% |
| O=C1c2ccccc2NC(c2ccc(-c3cccc([N+](=O)[O-])c3)o2)N1O (stereo not drawn) | 3.82% |
| COc1ccc(C)cc1S(=O)(=O)n1cnc(C)c1 | 16.8% |
| COc1ccc(CNC(=O)C2CCN(c3nc(OC)nc(OC)n3)CC2)cc1 | -28.9% |
| COc1cccc(NC(=O)CN(C)C(=O)c2cc(C)on2)c1 | 11% |
| CCCSc1cc(N2CCOCC2)nc(-c2ccccc2Cl)n1 | 9.12% |
| COc1ccc(NC(=O)c2ccc3[nH]c(C)c(C)c3c2)c(OC)c1 | 9.57% |
| CCCc1cc(=O)[nH]c(SCC(=O)c2cc(C)n(CCOC)c2C)n1 | 11.6% |
| COc1ccc2oc(=O)cc(CN(C)Cc3ccccc3)c2c1 | 4.28% |
| O=C(CCSc1ccc(Cl)cc1)N1CCN(c2ncccn2)CC1 | -16.3% |
| CCc1ccccc1NC(=O)CSc1nnc(C2CC2)n1CC1CCCO1 (stereo not drawn) | 8.55% |
| CCOC(=O)C1=C(CC)Nc2ccccc2N/C1=N\S(=O)(=O)c1ccccc1OC | 14.4% |
| COc1ccc(OC)c(NP(=O)(Oc2ccccc2)Oc2ccccc2)c1 | 10.6% |
| Cc1cc(Nc2ccccc2)c2c([N+](=O)[O-])ccc(C)c2n1 | 6.2% |

| Structure (SMILES) | hERG current change (%, negative = inhibition) at 1uM |
| --- | --- |
| Cc1ccc(OCC(=O)Nc2ccccc2F)cc1C | 18.1% |
| CCOC(=O)c1ccc(S(=O)(=O)N(CCO)Cc2cc3cc(OC)c(OC)cc3[nH]c2=O)cc1 | 10.4% |
| CCOC(=O)c1cccc(Nc2nc(C)cc(C)n2)c1 | 11.5% |
| CC1CN(C(=O)COC(=O)c2cccc(NS(=O)(=O)c3ccccc3)c2)CC(C)O1 (stereo not drawn) | 10.6% |
| NC(=O)CC(NC(=O)Cc1cccc2ccccc12)c1ccc(NC2CCN(Cc3ccccc3)CC2)c([N+](=O)[O-])c1 (stereo not drawn) | 4.66% |
| O=[n+]1c2c(n([O-])c3ccccc31)CCCC2 | 3.91% |
| CCOC(=O)c1c(C)[nH]c(C)c1C(=O)CSc1nc2ccccc2n1CCC#N | 11.5% |
| O=C(CN1C(=O)S/C(=C\c2cccc(Cl)c2)C1=O)NC1C=CS(=O)(=O)C1 (stereo not drawn) | 6.17% |
| CC(C)(C)OC(=O)NCCCC[C@H](NC(=O)c1[nH]cnc1C(=O)Nc1ccc(CNC(=O)OC(C)(C)C)cc1)C(=O)OC(C)(C)C | 16.1% |
| COc1cc(NC(=O)Cc2nn(C)c(=O)c3ccccc23)cc(OC)c1 | 7.58% |
| CCCNc1cc(=S)nc(N)[nH]1 | 12.9% |
| O=C(CN1CCN(c2ccccc2)CC1)c1c[nH]c2ccccc12 | 12.8% |
| Cc1cc(C(C)(C)C)ccc1NC(=O)CC(C)(C)CC(=O)O | 12.7% |
| O=C(COc1ccc(-n2cnnn2)cc1)Nc1ccc(F)c(F)c1F | 9.59% |
| CCCN1CCN(C(=O)Cn2cnc3ccc(S(=O)(=O)N4CCC(C)CC4)cc3c2=O)CC1 | -9.74% |
| Cc1cccc(NC(=O)CSCc2cc(=O)n3ccsc3n2)c1C | 11.9% |
| C/C=C(\C)C(=O)O[C@@H]([C@H](O)c1cc2ccc(=O)oc2cc1OC)C(C)(C)O | 13.2% |
| CC(C)CN1C(=O)C(=O)N(CC(=O)Nc2cccc(Cl)c2Cl)C1=O | 4.23% |
| COc1ccc(-c2cc3nc4c(c(=O)n3[nH]2)CCC4)cc1 | 1.76% |
| Cc1c(O)ccc(C(=O)COc2ccc(F)cc2)c1O | 9.83% |
| COc1cc2c(cc1OC)C(C)N(S(=O)(=O)c1ccc(Cl)nc1)CC2 (stereo not drawn) | 5.28% |
| Cc1cccc2nc(-c3cccnc3)c(NCCC(C)C)n12 | 0.734% |

| Structure (SMILES) | hERG current change (%, negative = inhibition) at 1uM |
| --- | --- |
| Cc1ccc(C(=O)NC2(C(Cl)Cl)N=C(c3ccccc3)N=C2N)cc1 (stereo not drawn) | 8.82% |
| CC(=O)NCC12CC3CC(C1)CC(C(=O)O)(C3)C2 | 10.6% |
| O=C(CN1C(=O)c2ccccc2C1=O)OCC(=O)N1CCN(c2ccccc2)CC1 | 7.65% |
| O=C(Cn1cc2c(n1)CCCCC2)NC1CCCCCC1 | 6.49% |
| CSc1nc2ccc3nc(NC(=O)c4cccs4)sc3c2s1 | -11.9% |
| CC(=O)Oc1ccc(N(C(C)=O)S(=O)(=O)c2ccc3ccccc3c2)cc1Br | 14% |
| Cc1cccc2c1NC(=O)C2(c1ccc(O)cc1)c1ccc(O)cc1 | 3.4% |
| CCOC(=O)C1(CC2CCCCO2)CCN(S(=O)(=O)c2cc(C)cs2)CC1 (stereo not drawn) | 8.07% |
| Cc1ccc(/C=C2/SC(=S)N(CCC(=O)NCCCN3CCOCC3)C2=O)cc1 | 0.32% |
| c1ccc2c(c1)CCCn1nnnc1-2 | 6.71% |
| O=C(Nc1ccc(Cl)c(Cl)c1)c1ccncc1 | -2.67% |
| CCCCN(C)C(=O)CCCCn1c(=O)[nH]c2cc(OCC)c(OCC)cc2c1=O | 4.02% |
| CCN(CC)c1ccc(C(=O)NNC(=O)CCNC(=O)c2ccccc2)cc1 | -3.84% |
| O=C(NCCN1CCOCC1)c1ccc2c(c1)N(Cc1ccccc1F)C(=O)CS2 | 2.96% |
| COc1cccc(CNC(=O)c2ccc3c(c2)S(=O)(=O)N=C2CCCCCN23)c1 | 0.413% |
| CCCn1nc([N+](=O)[O-])c(C(C#N)c2nc3ccccc3s2)c(Cl)c1=O (stereo not drawn) | 12.1% |
| CN1CCN(c2nc(-c3ccccn3)nc3ccccc23)CC1 | -12.1% |
| COc1ccc(CCNC(=O)C2CCCCC2C(=O)O)cc1OC (stereo not drawn) | 3.16% |
| O=C(COC(=O)c1cc([N+](=O)[O-])ccc1NCc1ccccc1)NC1CCCCC1 | -4.65% |
| CCCn1nnc(NC(=S)NC(=O)/C=C/c2ccc(Cl)cc2)n1 | 20.6% |
| COc1cc(/C=C2\NC(=S)N(C)C2=O)ccc1OCc1cccc(F)c1 | 16.3% |
| O=C(c1cc(-c2ccccc2)nc2ccccc12)N1CCc2ccccc2C1 | 4.22% |

| Structure (SMILES) | hERG current change (%, negative = inhibition) at 1uM |
| --- | --- |
| O=C1CN(C(=O)COC(=O)/C=C/c2ccc(OC(F)F)cc2)c2ccccc2N1 | 4.21% |
| COC(=O)c1ccc(COc2ccc(C(C)(C)C)cc2)o1 | 17.1% |
| CCc1ccc(-n2c(SCC(=O)N3CCC(C(=O)O)CC3)nnc2-c2ccncc2)cc1 | 7.81% |
| COc1cccc(CNCCSc2nnnn2C)c1OC.Cl | 4.54% |
| CCS(=O)(=O)N1CCN(C(=O)c2ccc(-c3ccccc3)cc2)CC1 | 3.99% |
| Cc1nnc(SCc2cc(=O)oc3ccc4ccccc4c23)n1Cc1ccccc1 | 1.93% |
| Cn1cc(CN2CCC(n3nccc3NC(=O)CCc3ccccc3)CC2)cn1 | 10.1% |
| O=C(O)CCCN(Cc1cccc(Br)c1)S(=O)(=O)c1ccc(Br)cc1 | 6.91% |
| O=C(NCCCN1CCOCC1)c1ccc2nc(Cc3ccccc3F)oc2c1 | 3.55% |
| CCCCC(CC)C(=O)Nc1ccc(Nc2ccccc2)cc1 (stereo not drawn) | 6.27% |
| O=C(CCCc1ccccc1)NCc1ccc(Cl)cc1 | 9.08% |
| CC(C)N(Cc1nc(-c2ccc(Cl)cc2)no1)C(=O)/C=C/c1ccccc1 | 8.51% |
| O=C(CSc1nc2ccccc2c(=O)n1Cc1ccco1)N1CCCC1 | -81.3% |
| CCC1(c2ccc(F)cc2)NC(=O)N(CC(=O)Nc2ccc(C(N)=O)cc2)C1=O (stereo not drawn) | 19.5% |
| CCOc1ccc(C(=O)NCCn2cc(SCC(=O)Nc3cc(C)on3)c3ccccc32)cc1 | 5.26% |
| CCOC(=O)/C(=C\C=C1/Sc2cc(OCC)c(OCC)cc2N1CC)C(C)=O | 5.98% |
| COc1ccc(CCNC(=O)CSc2nnnn2-c2ccc(OC)c(OC)c2)cc1OC | 11% |
| COc1ccc(CNC(=S)Nc2ccc(-c3ccccc3)cc2)cc1 | 6.99% |
| COc1cc(/C=C/[N+](=O)[O-])ccc1OC(=O)c1cccnc1 | 16% |
| Cc1ccc(NC(=O)Cn2c([N+](=O)[O-])cnc2C)cc1 | 0.82% |
| CC1(C)Cc2nc3sc4c(N5CCCC5)nnnc4c3cc2CO1 | 11.2% |
